{
  "source": "PubChem BioAssay AID504832",
  "about": "(National Center for Advancing Translational Sciences (NCATS), 2011)",
  "note": "The whole screen tested about 310,000 compounds, of which about 18,000 (5.8%) were called active. The inconclusive results got no clear call from the source; some entries with a clear call stand among them for comparison. The call rests on the fitted dose curve; in most records, active means well fitted inhibition curve with a large enough effect; inconclusive means small, poorly fitted or top-dose-only effect, or another doubt; inactive means no such curve, though single readings can be large or run the other way. No potency is given beside an inconclusive call; the fits are too rough. On the % scale 0 is the no-effect control and ±100 the full control effect; potency means the concentration at half of the fitted maximal effect; tags describe the fitted curve by direction and shape.",
  "data": [
    {"assay": "Primary qHTS for delayed death inhibitors of the malarial parasite plastid, 48 hour incubation", "conditions": "P. falciparum luciferase growth in erythrocytes; series mostly up to 28.7 µM; activity change, negative = inhibition: at the top concentration", "summary_of_the_method": "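Growth was read as firefly luciferase luminescence after a 48 h, 37 C, 5% CO2 exposure of compounds to reporter-bearing P. falciparum cultures (0.1% parasitemia, 2% hematocrit final) in Albumax-supplemented RPMI 1640.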", "values": [
      {"smiles": "Fc1ccccc1-c1nc(NCc2ccco2)c2ccccc2n1", "Potency": "inconclusive [inhibitor, single point]"},
      {"smiles": "CCOC(=O)c1ccc(NC(=O)N2CCN(S(C)(=O)=O)CC2)cc1", "Potency": "inconclusive [inhibitor, single point]"},
      {"smiles": "Cc1ccccc1NC1=C(Cl)C(=O)N(C2CCCCC2)C1=O", "Potency": "inconclusive [inhibitor, single point]"},
      {"smiles": "O=C(O)C[C@@H](O)C(=O)O", "Potency": "inconclusive [inhibitor, partial curve, poor fit]"},
      {"smiles": "Cc1ccc(NC(=O)C2CC(=O)NC(Nc3cccc(C)c3)=N2)cc1", "note": "(configuration not stated)", "activity change, negative = inhibition": "inactive: 15.7%"},
      {"smiles": "COc1cccc(N(CC(=O)NCC2CCCO2)C(=O)CCC(=O)Nc2nccs2)c1", "note": "(configuration not stated)", "Potency": "inconclusive [inhibitor, full curve]"},
      {"smiles": "CNC(=O)N(O)C1N(/N=C/c2cccs2)C(=S)SC1(C)C", "note": "(configuration not stated)", "Potency": "inconclusive [inhibitor, single point]"},
      {"smiles": "Cc1ccc(NC(=O)/C(=C/c2cccc([N+](=O)[O-])c2)NC(=O)C2CCCCC2)cc1", "Potency": "inconclusive [inhibitor, single point]"},
      {"smiles": "Cc1ccc(CNC(=O)COc2ccc(S(=O)(=O)N3CCCC3)cc2)cc1", "Potency": "inconclusive [inhibitor, partial curve, poor fit]"},
      {"smiles": "O=C(NCCCN1CCOCC1)c1ccc2c(c1)N(Cc1ccc(F)cc1)CCS2", "Potency": "inconclusive [inhibitor, partial curve]"},
      {"smiles": "OC(Cc1nc2ccccc2[nH]1)c1ccccc1Cl", "note": "(configuration not stated)", "activity change, negative = inhibition": "inactive: -2.18%"},
      {"smiles": "O=C(Nc1ccccc1Cl)C(Cl)C(=O)c1ccccc1", "note": "(configuration not stated)", "activity change, negative = inhibition": "inactive: 39%"},
      {"smiles": "CC(C)OCCCN1CC(=O)N2C(c3cccc([N+](=O)[O-])c3)c3[nH]c4ccccc4c3C[C@H]2C1=O", "note": "(some centres not stated)", "Potency": "active: 8.28 µM"},
      {"smiles": "COc1ccc(CC(=O)NCc2csc(-c3cccs3)n2)cc1OC", "activity change, negative = inhibition": "inactive: -22.4%"},
      {"smiles": "CC1(C)C(=O)OC(c2ccc([N+](=O)[O-])cc2)C(C)(C)C1=O", "note": "(configuration not stated)", "Potency": "inconclusive [inhibitor, partial curve, poor fit]"},
      {"smiles": "O=C(NCCCN1CCCC1=O)C(=O)NCC1OCCN1S(=O)(=O)c1ccc(Cl)cc1", "note": "(configuration not stated)", "activity change, negative = inhibition": "inactive: 4.82%"},
      {"smiles": "Cc1ncc(CO)c(/C=N/NC(=O)c2ccoc2C)c1O", "Potency": "inconclusive [inhibitor, single point]"},
      {"smiles": "S=C(NCC1CCCO1)Nc1ccc(Cl)cc1", "note": "(configuration not stated)", "activity change, negative = inhibition": "inactive: 13.7%"},
      {"smiles": "Cc1ccc2c(c1)C(=C(C#N)C#N)C(=O)N2CCN1CCCCC1", "Potency": "inconclusive [inhibitor, single point]"},
      {"smiles": "CCN(CC)C(=O)CN1CCC(n2c(C)nc3cc(C(F)(F)F)ccc32)CC1", "Potency": "inconclusive [inhibitor, single point]"},
      {"smiles": "COc1cccc(-c2nc(-c3ccc4c(c3)-c3ccccc3S4(=O)=O)c(-c3ccccc3)[nH]2)c1OC", "Potency": "active: 9.28 µM"},
      {"smiles": "O=C(Nc1ccccc1N1CCOCC1)c1cccc(S(=O)(=O)N2CCOCC2)c1", "Potency": "inconclusive [inhibitor, single point]"},
      {"smiles": "O=C(N/N=C/c1ccc(OCCCF)cc1)c1cc(OCC(F)(F)F)ccc1OCC(F)(F)F", "activity change, negative = inhibition": "inactive: 37.5%"},
      {"smiles": "CCC(C)C1NC(=S)N(C2CCCCC2)C1=O", "note": "(configuration not stated)", "Potency": "inconclusive [inhibitor, single point]"},
      {"smiles": "CCOCCCn1c(SCC(=O)Nc2ccc(OC)cc2)nc2ccccc2c1=O", "Potency": "inconclusive [inhibitor, partial curve]"},
      {"smiles": "COc1cc(C)c(CN2CCN(CC(=O)Nc3ccccc3C(=O)NC3CC3)CC2)cc1OC", "Potency": "inconclusive [inhibitor, partial curve]"},
      {"smiles": "CC(C)(CN1CCCC1)NC(=O)C1CCC(=O)N(CCCN2CCOCC2)C1", "note": "(configuration not stated)", "activity change, negative = inhibition": "inactive: 27%"},
      {"smiles": "COC(=O)c1cc2ccsc2n1CC(=O)Nc1cc(Cl)ccc1OC", "Potency": "inconclusive [inhibitor, single point]"},
      {"smiles": "Oc1c(N=NC(=S)Nc2ccccc2F)c2ccccc2n1Cc1cccc(Cl)c1", "Potency": "inconclusive [inhibitor, partial curve, poor fit]"},
      {"smiles": "CN(CCCNC(=O)c1cc2c(Cl)nc3ccccc3c2s1)Cc1ccccc1", "Potency": "active: 3.29 µM"},
      {"smiles": "COc1ccc2oc(C(=O)NCC(Cc3ccccc3)N(C)C)c(C)c2c1", "note": "(configuration not stated)", "Potency": "inconclusive [inhibitor, partial curve]"},
      {"smiles": "CCCCOC(=O)/C=C/c1ccc(OC(=O)OC)c(OC(=O)OC)c1", "activity change, negative = inhibition": "inactive: 5.77%"},
      {"smiles": "O=C(CSc1nc(C2CC2)n(-c2ccccc2)n1)NCc1ccco1", "Potency": "inconclusive [inhibitor, single point]"},
      {"smiles": "O=C(Nc1ccc(S(=O)(=O)N2CCOCC2)cc1)c1cc(S(=O)(=O)N2CCOCC2)ccc1Cl", "Potency": "inconclusive [inhibitor, partial curve, poor fit]"},
      {"smiles": "Cc1cc(C)n2nc(C(=O)NNC(=O)c3ccc(Cl)cc3)nc2n1", "activity change, negative = inhibition": "inactive: 40.9%"},
      {"smiles": "O=C(NC1CC1)C1=C[C@@H](c2csc3ccccc23)C[C@@H](OCCCCO)O1", "Potency": "active: 10.4 µM"},
      {"smiles": "CN(CC(=O)Nc1sccc1C#N)C1CCCCC1", "activity change, negative = inhibition": "inactive: -2.96%"},
      {"smiles": "Cc1ccc(C)n1CCN1CCN(C(=O)CSc2nc3ccccc3nc2N2CCOCC2)CC1", "Potency": "active: 11.7 µM"},
      {"smiles": "Cc1ccc(/C=N/NC(=O)COc2ccc(Cl)c(C)c2)o1", "activity change, negative = inhibition": "inactive: -1.44%"},
      {"smiles": "CCn1c(=O)c(C(=O)CN(C)CC(=O)Nc2ccccc2Br)c(N)n(Cc2ccccc2)c1=O", "Potency": "active: 10.4 µM"},
      {"smiles": "Cc1ccc(NCc2ccc(Cl)nc2)c(NCc2ccc(Cl)nc2)c1", "Potency": "inconclusive [inhibitor, partial curve, poor fit]"},
      {"smiles": "COc1ccc(CCn2c(O)c(C=Nc3ccc(F)cc3)c(=O)[nH]c2=O)cc1OC", "activity change, negative = inhibition": "inactive: -3.65%"},
      {"smiles": "C/C(=N/N=C1/NC(=O)CC(C(=O)Nc2ccccc2)S1)c1cccs1", "note": "(configuration not stated)", "Potency": "active: 10.4 µM"},
      {"smiles": "O=C(N/N=C/c1c(O)ccc2ccccc12)c1[nH]ncc1Br", "Potency": "active: 11.7 µM"},
      {"smiles": "CC(NC(=O)c1ccccc1F)c1nnc(SCC(=O)NC2CCCC2)n1C", "note": "(configuration not stated)", "activity change, negative = inhibition": "inactive: 7.79%"},
      {"smiles": "C=CCNC(=S)N1CCN(C2CCCCC2)CC1", "Potency": "inconclusive [inhibitor, partial curve]"},
      {"smiles": "O=C1CC(c2ccco2)CC(O)=C1C=NCC1NCCc2ccccc21", "note": "(configuration not stated)", "Potency": "active: 10.4 µM"},
      {"smiles": "CC1CN(Cc2nnc(-c3ccccc3)o2)CC(C)O1", "note": "(configuration not stated)", "activity change, negative = inhibition": "inactive: 34.1%"},
      {"smiles": "COc1cc(/C=C2/NC(=O)N(Cc3ccccc3F)C2=O)cc(OC)c1O", "activity change, negative = inhibition": "inactive: -17.1%"},
      {"smiles": "COc1ccc(CCNCc2ccccc2N2CCCC2)cc1", "Potency": "inconclusive [inhibitor, single point]"},
      {"smiles": "COc1ccc(CCC(=O)NCCc2nc3ccccc3[nH]2)cc1", "activity change, negative = inhibition": "inactive: -3.46%"},
      {"smiles": "COc1ccc(CCNC(=O)c2cc3c(=O)n4cccc(C)c4nc3n(Cc3ccncc3)c2=N)cc1", "activity change, negative = inhibition": "inactive: -15.4%"},
      {"smiles": "Cc1nn(-c2ccccc2)c(N2CCCC2)c1/C=N/Nc1ccc(S(N)(=O)=O)cc1[N+](=O)[O-]", "Potency": "inconclusive [inhibitor, single point]"},
      {"smiles": "CCCN(CCC)c1ccc(/C=N/NC(=O)CN2CCOCC2)cc1", "Potency": "inconclusive [inhibitor, partial curve]"},
      {"smiles": "CCSc1ccc([C@@H]2[C@@H]3C(=O)N(CC)C(=O)[C@@H]3[C@]3(C(=O)OC)CCCN23)cc1", "Potency": "active: 10.4 µM"},
      {"smiles": "Cc1c(NC(=O)CSc2nc3ccccc3c(=O)n2C(C)C)c(=O)n(-c2ccccc2)n1C", "Potency": "inconclusive [inhibitor, single point]"},
      {"smiles": "Cc1cc(NC(=O)CSc2nnc(-c3c[nH]c4ccccc34)n2-c2ccc(Cl)cc2)no1", "Potency": "inconclusive [inhibitor, partial curve]"},
      {"smiles": "CC1=C(C/C=C(\\C)CCCC(C)CCCC(C)CCCC(C)C)C(=O)c2ccccc2C1=O", "note": "(configuration not stated)", "Potency": "active: 10.7 µM"},
      {"smiles": "COc1cc(C(=O)NCc2ccncc2)cc(Br)c1OCc1ccccc1", "Potency": "inconclusive [inhibitor, partial curve]"},
      {"smiles": "COc1ccc(NC2=Nc3cccc4cccc2c34)cc1OC", "Potency": "inconclusive [inhibitor, single point]"},
      {"smiles": "CCOc1ccc(S(=O)(=O)N(C)CCO)cc1-c1nc2c(C(C)(C)C)nn(C)c2c(=O)[nH]1", "Potency": "active: 11.7 µM"},
      {"smiles": "O=C(O)c1ccc(CNCc2cccc(Oc3ccccc3)c2)cc1", "activity change, negative = inhibition": "inactive: 1.01%"},
      {"smiles": "CN(Cc1cccnc1)Cc1cn[nH]c1-c1ccc(-c2ccccc2)cc1", "Potency": "inconclusive [inhibitor, single point]"},
      {"smiles": "O=C(c1ccc(S(=O)(=O)N2CCOCC2)cc1)N1CCc2ccccc2C1", "Potency": "inconclusive [inhibitor, partial curve, poor fit]"},
      {"smiles": "COc1ccc(C(=O)NCCn2cc(SCC(=O)N3CCOCC3)c3ccccc32)cc1", "activity change, negative = inhibition": "inactive: 19.5%"},
      {"smiles": "CCN(CC)c1ccc(S(=O)(=O)N2CCOCC2)cc1NC(=O)CSc1nncn1C", "Potency": "inconclusive [inhibitor, single point]"},
      {"smiles": "Cc1csc(CN(C)C(=O)C2CCC(=O)N(Cc3ccc(Cl)cc3)C2)n1", "note": "(configuration not stated)", "Potency": "inconclusive [inhibitor, partial curve]"},
      {"smiles": "CC(=O)N1CCN(CC(=O)Nc2cc([N+](=O)[O-])ccc2Cl)CC1", "activity change, negative = inhibition": "inactive: -6.1%"},
      {"smiles": "CCc1noc(C)c1C(=O)NNC(=O)c1cc(OC)cc(OC)c1", "activity change, negative = inhibition": "inactive: 5.56%"},
      {"smiles": "Cc1cc(N2CCCC2)nc(N2C3CCC2CC(O)(c2ccc(F)cc2)C3)n1", "note": "(configuration not stated)", "Potency": "inconclusive [inhibitor, partial curve, poor fit]"},
      {"smiles": "CSc1cccc(NC(=S)N(Cc2ccccc2)Cc2ccccn2)c1", "Potency": "inconclusive [inhibitor, partial curve]"},
      {"smiles": "O=C(Nc1ccc(Oc2ccc(C(F)(F)F)cn2)c(Cl)c1)C1CC1", "Potency": "inconclusive [inhibitor, single point]"}
    ]}
  ]
}
